Test results from publication PMC10668032.
The list shows a part of the results. At the low end of the ranking the order means little.

Each sequence was assayed against SIX1-Q177R homeodomain (UniProt Q15475) (assay: universal protein binding microarray). Conditions: Universal all-10-mer PBM (8x60K, AMADID 030236), 300 nM GST-tagged protein, Alexa Fluor 488 anti-GST; buffer, salt, pH and temperature not stated; high values mean tight binding; most listed sequences are background and not binding sites; double strand, one strand shown.

Sequence | binding signal [E-score]
CGGAGTGA | 0.216
CCAACGCA | 0.0509
AGTTAAAA | -0.24
ACAGACCA | -0.0889
CAGTGGGC | 0.00397
CCCAAGGC | -0.137
CATCGCAA | -0.0859
ACTGGGGA | 0.0343
AGCAGGGC | -0.216
AAATGGAT | -0.0529
CCCTATGC | -0.154
AAGAGTTC | 0.0159
ATTTGCAC | -0.077
AGAGACTC | -0.103
CCTGAGCA | 0.1
ACGGCCAA | -0.0618
AATGTGAT | -0.00758
GACTCTGA | -0.00413
ACTCACTC | -0.112
CGTCCCTC | -0.131
AAAAGAAT | -0.232
CCGTTAGG | -0.115
CGCACTAA | -0.073
CTGGGCGA | -0.0186
CGTGTAAG | 0.428

Sequence | binding signal [E-score]
ATGCGTCA | -0.275
AATGATGT | -0.11
GCCATTCA | -0.0713
CCAAGGAC | -0.073
CAAGGGAC | -0.255
ATTTGTCA | -0.193
TAATACTA | -0.0498
ACACAAAA | 0.106
ACCGCGCA | 0.155
ACCACAGC | 0.00756
ACCCCCCG | 0.329
ACCCGACG | 0.208
AGACTAAA | -0.242
ATCTTAAT | -0.144
ACGAACCA | -0.0244
CTGTACAG | -0.29
GCTGTCTA | -0.165
CTTCGGTC | -0.126
GGGGAATA | 0.0194
ACTAGGTG | 0.218
AGGGACAG | -0.174
ACAAACAA | -0.143
CTAGGCGC | -0.105
GAGTGTTA | 0.407
GATCAGCA | -0.179

Sequence | binding signal [E-score]
GATCTTAA | -0.146
ATGTGAGA | -0.119
GAACACCC | 0.471
AGCACGCT | -0.0486
GTAGCATA | 0.0538
CATTGGGC | -0.19
ACAATTAA | -0.23
CCGAGAAG | 0.0266
GACCCTAA | 0.0347
CTACACCC | 0.482
AACGCGTG | 0.146
CTCTCACC | 0.133
AGGTACGC | 0.0656
CTCAAATA | -0.166
AGGTTGTA | -0.0243
GTGTGGGA | 0.286
AGGACCCA | -0.0116
AACTCGAC | 9.5e-05
CCCGCCCC | 0.179
AGTGAGAT | 0.0662
AAGTGCGG | -0.071
ATACCTTA | -0.002
GCGCACCC | 0.236
CGCTATTC | -0.0772
TGGGTTAA | 0.146

Sequence | binding signal [E-score]
CGAGTCCC | -0.0879
ACGACCGG | 0.0864
AAAGGGTG | 0.317
ACTCGCGC | 0.132
AGCTTTTA | -0.161
CTTCAGGA | -0.233
CTTATGAA | -0.228
ACGTACTC | -0.0199
CGGTTACA | 0.251
ACTGCAGC | -0.113
AGGGCTTA | -0.13
TCCGCAGA | -0.2
ACGAGTAT | -0.12
CGCGTACC | 0.0759
GGGCGCGA | -0.0683
GCATATGC | -0.159
CACCAACG | 0.335
AACACGTA | 0.343
AACTGTAG | -0.0282
ATTGAAAA | -0.138
AACGCCAA | 0.0352
ATTCATCC | -0.0695
CCGGATTC | 0.167
TGCGCTAA | 0.066
ATCGAAAA | -0.106

Sequence | binding signal [E-score]
CGGATTGC | -0.0858
CCATGGTA | 0.0388
GAGGACCA | -0.124
CTAGCTCA | -0.107
CTAGGCGA | -0.0769
CACGGTCC | 0.0325
AACCGCCC | 0.11
CGACTCAC | -0.00197
CAACTCAA | 0.0138
CGCGCGTC | -0.0681
CGACAGTC | -0.239
GCAGCAAC | -0.00496
ACGAACTG | -0.224
CAACAGAG | -0.11
GCAGTAGA | 0.0449
GGGGGAAC | 0.105
ACCAGGCT | -0.0563
ACCTCGTG | 0.208
AAAAGGGC | -0.163
CACCACTG | 0.342
AGTTCCGG | 0.0899
ACTGGGAT | -0.01
CAGCATGG | 0.00833
CGGGATGC | -0.058
ATTGGCGC | -0.0819

Sequence | binding signal [E-score]
AGGCCCGG | -0.095
TCCGGAGA | -0.0365
AACGTCTC | -0.0929
CAGACCAA | -0.166
AGAAGCGA | -0.146
ATAGTGGC | 0.0957
AATTAATC | -0.26
AGCAACGG | -0.049
AGGTGCCC | 0.0067
ACGAAATC | -0.224
GCCACTCA | -0.176
CGAACCAG | 0.00568
GCCAACAA | -0.276
GCGGGAAA | -0.114
GCTCCTGA | -0.103
ATCCATCA | -0.0688
AGAAAACG | -0.111
ACGAGGAC | 0.0573
ATTGACTA | -0.212
GCGAAGCC | -0.135
ATGGCCTG | -0.0958
AAGCGACT | -0.101
CCATGGAA | 0.156
ATCTAAAA | -0.226
AACCTCTA | -0.138

Sequence | binding signal [E-score]
CGAAGTAC | 0.174
CAGAGGCG | -0.06
ATAGGGTA | 0.0716
AGCGCCAG | -0.0481
GTGTAAAA | 0.401
ACTCCAGC | 0.112
ACTACTTA | -0.0184
ACTATTTC | -0.138
CCATCTGC | -0.0601
AAGCCCCG | -0.0634
ATTGCCGA | -0.00773
TTCCAAAA | -0.103
ATCTTAGA | -0.189
ACACTTCG | 0.327
CTCCCGTA | 0.0446
ATATAGTA | 0.0164
GGGTGACC | 0.0806
CTGCGGAC | -0.107
GACGATTA | -0.0835
AGGATGGC | -0.0236
CCAGCGCG | 0.0042
TCAAGGCA | -0.171
GCGTTCCC | -0.0844
AAAGGAAG | -0.206
GATTGCAA | -0.255

Sequence | binding signal [E-score]
CGCCTCCG | 0.0308
AAACCTCC | 0.0345
CGTTCCCA | -0.16
AATGTATG | -0.0693
AGCAATGA | -0.0598
ACCGGGAT | 0.118
ACGGAAAG | -0.0425
AATTTTGG | -0.162
CCGCTGAG | -0.1
CCTTGTAC | 0.0763
TCCTTTAA | -0.119
CTGGATTC | -0.0961
CAGAGAAA | -0.155
ACCCAAGA | 0.163
GAATTGCC | -0.243
GATCTACC | 0.011
GGGGCAAA | -0.159
GCTTCGCA | -0.122
GAAACGTC | -0.158
ACGACTAT | -0.0394
TGTACCAA | 0.164
ATAGCTTG | -0.193
TACTCTAA | -0.0139
AAATGCTT | -0.233
CCACTTCC | 0.16

Sequence | binding signal [E-score]
CTGGGCTC | -0.274
CGAGCTCA | -0.213
ACTATCGA | 0.156
ACCAGATC | 0.164
AAGAAAGA | -0.335
CCCTGCTA | -0.0229
CCGTAACA | 0.145
TGGCTTAA | -0.223
ACCCGTAA | 0.264
GGTCGGTA | -0.000165
TAAGAGGA | -0.106
CGACACAG | 0.251
CTATGCAA | -0.141
ATATGAAG | -0.0649
GCCGACCC | 0.132
GAAGTGAC | -0.116
GAAGTCAA | -0.24
GAATCGAC | 0.0378
GTGTGAAA | 0.356
ACTCACCG | 0.0377
CGTAAGAC | -0.186
GCAGCGGC | -0.195
GGCGTATA | 0.0351
GTTAATCA | -0.226
GCCTTCGC | -0.126

Sequence | binding signal [E-score]
CTGGTAGA | -0.0129
CTTGAAAC | 0.0164
AGTTGAAT | -0.274
AATGTTCT | -0.216
AGTACCGC | 0.0481
AAATTGTT | -0.113
CCACATAC | 0.00319
AGATCGGA | -0.00039
CATGAATC | -0.0785
ACGTATTA | 0.00142
ACCAGGCC | 0.0416
AGTTAGAC | -0.115
AAACAGAG | -0.148
TATGCAGA | -0.158
AGTTGGCC | -0.0822
ACTGATCT | 0.00396
CGTTCTCC | -0.124
ACTAGACC | 0.0472
AGGAGCAG | -0.227
ATTAGCGG | -0.191
AGCACTGA | -0.165
CACTACAG | 0.196
ATTGGTAA | -0.351
AAGTTCAA | -0.182
CTGAGCAC | 0.254

Sequence | binding signal [E-score]
CCAGTATA | -0.171
ACCTAAAA | -0.0543
GCCCAGGA | -0.141
GGGAGTCA | 0.221
CCGCGAAA | 0.167
CAGCCAAC | -0.0555
GTTTGGGA | -0.104
AAGGTGTA | 0.461
AGATTATA | -0.17
TCACAGAA | 0.0166
AGTACTCC | 0.122
ACTAGTCT | -0.0778
GAATTTGA | -0.313
AACTAGCC | -0.131
AGGACTTC | -0.205
CAAATTTC | -0.179
ATGCAATC | -0.134
CACTCAGG | 0.235
AATCTGTC | -0.225
ACACGCTA | 0.383
AGCCTACT | -0.0294
AACTGAGT | -0.12
CCCTACAC | 0.424
ACGGATAA | 0.158
CGTCTATA | 0.0332

Sequence | binding signal [E-score]
ACGCCGAC | 0.127
AAGTATTC | -0.284
ACTCCCGA | 0.172
CTCTGCCA | -0.111
GGCACAAA | 0.103
ATTTCCAG | -0.132
CAAATCAA | 0.00417
ATCGGGAA | -0.245
ATTACCCC | 0.294
CACCGGCG | 0.244
ATTTGGAA | -0.0523
ACACGAAT | 0.31
CATGCTGA | -0.0309
CTCACGTA | -0.0413
CAGCGAGG | -0.12
AGACCAGC | -0.213
TCGTTTAA | -0.25
CAATCCGA | -0.113
ATGAAAAT | -0.19
ATTGTTAG | -0.173
TGGGAACA | 0.172
ATGGGACG | -0.311
ACGTCCAA | -0.105
AGACTCAC | -0.0936
AAGGTGCT | 0.0677

Sequence | binding signal [E-score]
ACATAGAT | -0.33
AATTGTGG | 0.0421
GGGTCCGA | 0.0814
AAACCTAC | 0.00187
CACCTCGG | 0.269
AAAATTTA | -0.31
ATCATCAG | -0.231
CCGCAAGA | -0.249
AATCTAAC | -0.0446
CTGCACGC | -0.134
ATGATAGC | -0.0849
ATTGGGCG | -0.0009
AAAAATGA | -0.212
AGATTGAC | -0.0336
AAGCCTGT | -0.209
GGAACACC | 0.474
GGGCGCTA | 0.0962
GCCGCATA | 0.00196
ACCATTGC | -0.0641
CTAGGACC | -0.134
CTGCTACC | -0.151
AGTAGCCG | 0.0101
ATGGGTAA | -0.022
CCAGTCGC | -0.108
ATTTTATA | -0.0862

Sequence | binding signal [E-score]
CAGGTGGG | 0.0536
AACTCGGC | -0.0225
AAGCTAGA | -0.192
ACAGTCGA | -0.191
AGTTTGTG | -0.0491
CAAGGTGC | 0.124
TAGATCCA | -0.053
ACCCCCAG | 0.23
CGATTCCG | -0.0162
CATAAAAC | -0.0368
ATCCGAGC | -0.114
AGGCGCTC | -0.094
AAGTCCAG | -0.0406
ATATTTAG | 0.0342
AACGGGAT | -0.0665
CATTACAA | -0.157
GACTTAGA | -0.177
AGGTGCGA | 0.0878
ATTTCGAG | -0.226
